The values below come from the supplement of paper PMC12355420.

SMILES strings stand for the structures. Several values for one entry are separate records, joined by “and”; a condition that tells them apart may be missing. Equal entries are not always repeated. Structures can show the parent of a compound that is named as a salt. The list shows a part of the results. No stated cut-off is given here; in the data, active = 0.5 or less and inactive = the rest. Most values come without repeats; read them as rough.

Conditions in all cases: 50 µM; 24 h
Assay [1] has as its system HeLa VPS33A reporter cells. Kind of assay: relative cell viability (CellMask signal) vs DMSO (fraction of DMSO); higher = less cytotoxic.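 Further: primary screen of an FDA-approved drug library in HeLa reporter cells in 96-well format, CellMask signal normalized to DMSO-treated wells set as 1, under 0.5 deemed highly cytotoxic.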
The subject of assay [2] is HeLa VPS33A R498W KI + HA-SDC1-FLAG. Kind of assay: relative GAG core protein HA-SDC1 amount per cell number vs DMSO (fraction of DMSO); higher = more SDC1 (GAG core protein).
Assay [3] deals with HeLa VPS33A KO + NLuc-VPS33A R498W. Kind of assay: relative mutant VPS33A R498W amount (NanoLuc luminescence) vs DMSO (fraction of DMSO); HeLa model of a glycosaminoglycan (GAG) storage disease; KI is knock-in and KO knock-out; SDC1 is syndecan 1; higher = higher mutant VPS33A level.
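Wherever relative GAG core protein HA-SDC1 amount per cell number vs DMSO is given: HA-SDC1 level read out by In-Cell Western staining with an anti-HA antibody against the N-terminal tag, screening FDA-approved library drugs.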
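Wherever relative mutant VPS33A R498W amount (NanoLuc luminescence) vs DMSO is given: screen of an FDA-approved drug library, NanoLuc luminescence read after lysing the treated cells, taken as a measure of mutant VPS33A protein stability.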

`CC(C)=CCC/C(C)=C/CO` [Geraniol] returned a relative cell viability in assay [1] of 0.942. Also, the “relative GAG core protein HA-SDC1 amount per cell number” value in assay [2] was inactive: 0.968. The “relative mutant VPS33A R498W amount” value in assay [3] came out at 1.45.

In assay [1], `O=CC[C@@H](O)[C@H](O)[C@H](O)CO` [2-Deoxy-D-glucose] came in with a relative cell viability of 1.4. The “relative GAG core protein HA-SDC1 amount per cell number” value in assay [2] is inactive: 0.827. In addition, in assay [3], the “relative mutant VPS33A R498W amount” value was 0.802.

`CN[C@@H]1[C@H](O[C@H]2[C@H](O[C@H]3[C@H](O)[C@@H](O)[C@H](N=C(N)N)[C@@H](O)[C@@H]3N=C(N)N)O[C@@H](C)[C@]2(O)C=O)O[C@@H](CO)[C@H](O)[C@H]1O` [Streptomycin sulfate] displayed a relative cell viability in assay [1] of 0.935. In addition, the “relative GAG core protein HA-SDC1 amount per cell number” value in assay [2] was inactive: 1.07. Further, in assay [3], the “relative mutant VPS33A R498W amount” value was 1.

For `O=C1[C@@H]2[C@H]3CC[C@H](C3)[C@@H]2C(=O)N1C[C@@H]1CCCC[C@H]1CN1CCN(c2nsc3ccccc23)CC1` [Lurasidone HCl], in assay [1], the relative cell viability was determined as 1.09. For the same molecule, the “relative GAG core protein HA-SDC1 amount per cell number” value in assay [2] is inactive: 0.67. In addition, the “relative mutant VPS33A R498W amount” value in assay [3] is 0.768.

Take `CC(C)(O/N=C(\C(=O)N[C@@H]1C(=O)N2C(C(=O)[O-])=C(C[n+]3ccccc3)CS[C@H]12)c1csc(N)n1)C(=O)O` [Ceftazidime]: the relative cell viability in assay [1] was 0.946 and 1.09. Further, the “relative GAG core protein HA-SDC1 amount per cell number” value in assay [2] is inactive: 0.97 and inactive: 0.896. For the same molecule, the “relative mutant VPS33A R498W amount” value in assay [3] was 1.87 and 1.67.

For `Nc1ncnc2c1ncn2[C@@H]1O[C@H](CO)[C@@H](O)[C@@H]1O` [Vidarabine], the relative cell viability in assay [1] amounted to 0.983. Further, the “relative GAG core protein HA-SDC1 amount per cell number” value in assay [2] was inactive: 0.791. Further, the “relative mutant VPS33A R498W amount” value in assay [3] was 1.61.

In assay [1], `CC(C)CC(N)=O` [Isovaleramide] showed a relative cell viability of 0.923. In assay [2], the “relative GAG core protein HA-SDC1 amount per cell number” value is inactive: 1.06. Also, in assay [3], the “relative mutant VPS33A R498W amount” value stood at 1.18.

`OC[C@H]1O[C@@](CO)(O[C@H]2O[C@H](CO)[C@@H](O)[C@H](O)[C@H]2O)[C@@H](O)[C@@H]1O` [sucrose]: the relative cell viability in assay [1] turned out to be 1.06. Besides, the “relative GAG core protein HA-SDC1 amount per cell number” value in assay [2] is inactive: 1.02. Also, the “relative mutant VPS33A R498W amount” value in assay [3] stood at 1.21.

Take `CN1C(C(=O)Nc2ccccn2)=C(O)c2sc(Cl)cc2S1(=O)=O` [Lornoxicam]: the relative cell viability in assay [1] is 1.32. Further, the “relative GAG core protein HA-SDC1 amount per cell number” value in assay [2] is inactive: 0.991. In addition, in assay [3], the “relative mutant VPS33A R498W amount” value was determined as 1.33.
